{"sequences": {"note": "Chains of the proteins cited; added tags and fusions are not shown.", "UniProt P25454": "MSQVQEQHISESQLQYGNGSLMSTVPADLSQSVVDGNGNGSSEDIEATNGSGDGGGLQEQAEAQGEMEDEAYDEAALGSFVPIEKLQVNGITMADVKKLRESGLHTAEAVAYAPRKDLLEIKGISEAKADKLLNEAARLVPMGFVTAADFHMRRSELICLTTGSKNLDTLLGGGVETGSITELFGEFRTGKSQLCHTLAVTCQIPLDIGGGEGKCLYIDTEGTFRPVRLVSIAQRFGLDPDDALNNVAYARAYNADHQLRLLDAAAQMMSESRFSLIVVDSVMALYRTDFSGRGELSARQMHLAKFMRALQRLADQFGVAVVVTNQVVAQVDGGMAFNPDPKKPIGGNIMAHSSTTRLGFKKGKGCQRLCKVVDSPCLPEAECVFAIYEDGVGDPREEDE", "UniProt P29469": "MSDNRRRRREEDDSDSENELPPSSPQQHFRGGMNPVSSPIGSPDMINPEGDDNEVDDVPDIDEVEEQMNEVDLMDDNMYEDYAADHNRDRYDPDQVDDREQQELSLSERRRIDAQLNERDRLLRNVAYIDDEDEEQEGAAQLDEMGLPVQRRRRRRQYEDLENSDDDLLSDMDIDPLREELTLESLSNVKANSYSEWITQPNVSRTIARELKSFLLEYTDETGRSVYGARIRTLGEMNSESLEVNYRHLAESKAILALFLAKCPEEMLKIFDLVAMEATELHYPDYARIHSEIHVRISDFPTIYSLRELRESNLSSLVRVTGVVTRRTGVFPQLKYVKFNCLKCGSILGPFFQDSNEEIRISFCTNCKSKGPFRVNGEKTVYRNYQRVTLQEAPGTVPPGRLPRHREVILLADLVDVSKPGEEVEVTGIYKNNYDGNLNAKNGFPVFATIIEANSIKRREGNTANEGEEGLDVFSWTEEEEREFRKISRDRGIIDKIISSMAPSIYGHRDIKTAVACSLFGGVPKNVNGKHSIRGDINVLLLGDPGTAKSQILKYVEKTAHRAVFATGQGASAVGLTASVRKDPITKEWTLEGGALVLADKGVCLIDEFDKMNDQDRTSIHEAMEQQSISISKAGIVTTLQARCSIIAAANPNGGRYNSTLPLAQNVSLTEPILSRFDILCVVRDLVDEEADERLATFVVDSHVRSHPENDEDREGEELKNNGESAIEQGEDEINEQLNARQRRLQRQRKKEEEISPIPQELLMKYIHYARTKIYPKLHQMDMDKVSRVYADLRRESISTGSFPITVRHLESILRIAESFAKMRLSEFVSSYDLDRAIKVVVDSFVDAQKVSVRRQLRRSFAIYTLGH"}, "source": "paper PMC11876325", "key": {"[1]": {"biological_target": "T1, Rad57 (pGBD Rad57) (S. cerevisiae) (UniProt P25301)", "T1 sequence": "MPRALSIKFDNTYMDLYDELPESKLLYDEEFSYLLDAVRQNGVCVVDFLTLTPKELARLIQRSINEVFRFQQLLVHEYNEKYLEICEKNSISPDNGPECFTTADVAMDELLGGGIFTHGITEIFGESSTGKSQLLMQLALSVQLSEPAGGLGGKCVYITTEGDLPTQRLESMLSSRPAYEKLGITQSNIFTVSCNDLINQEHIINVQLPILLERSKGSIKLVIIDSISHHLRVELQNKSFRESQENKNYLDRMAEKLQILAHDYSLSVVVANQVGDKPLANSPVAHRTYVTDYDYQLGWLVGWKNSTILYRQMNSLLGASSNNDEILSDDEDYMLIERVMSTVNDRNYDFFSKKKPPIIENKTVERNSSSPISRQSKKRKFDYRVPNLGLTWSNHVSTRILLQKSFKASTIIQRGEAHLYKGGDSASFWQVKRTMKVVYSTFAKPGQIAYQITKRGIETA", "test": "two-hybrid; GAL4 DNA-binding domain (pGBD) and GAL4 activation domain (pGAD) fusions co-transformed into PJ69-4α (also its rad51∆, rad55∆, csm2∆, shu1∆ and shu2∆ derivatives); growth on SC-L-W-H, 2-3 days, 30 °C"}, "[2]": {"biological_target": "T2, Rad55 (pGBD Rad55) (S. cerevisiae) (UniProt P38953)", "T2 sequence": "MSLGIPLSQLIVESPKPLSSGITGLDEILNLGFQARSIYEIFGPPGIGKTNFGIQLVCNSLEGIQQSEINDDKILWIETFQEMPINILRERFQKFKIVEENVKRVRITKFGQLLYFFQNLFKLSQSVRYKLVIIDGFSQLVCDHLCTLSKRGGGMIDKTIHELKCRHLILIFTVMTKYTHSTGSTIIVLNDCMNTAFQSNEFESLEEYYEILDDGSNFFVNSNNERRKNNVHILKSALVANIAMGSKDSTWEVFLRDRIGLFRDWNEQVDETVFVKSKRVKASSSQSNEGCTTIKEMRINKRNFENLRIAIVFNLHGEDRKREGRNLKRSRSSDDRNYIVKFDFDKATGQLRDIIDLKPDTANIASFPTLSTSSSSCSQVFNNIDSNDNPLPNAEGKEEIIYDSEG", "test": "two-hybrid; GAL4 DNA-binding domain (pGBD) and GAL4 activation domain (pGAD) fusions co-transformed into PJ69-4α (also its rad51∆, rad55∆, csm2∆, shu1∆ and shu2∆ derivatives); growth on SC-L-W-H, 2-3 days, 30 °C"}, "[3]": {"biological_target": "Rad51 (two-hybrid fusion) (S. cerevisiae) (UniProt P25454)", "test": "two-hybrid; GAL4 DNA-binding domain (pGBD) and GAL4 activation domain (pGAD) fusions co-transformed into PJ69-4α (also its rad51∆, rad55∆, csm2∆, shu1∆ and shu2∆ derivatives); growth on SC-L-W-H, 2-3 days, 30 °C"}, "[4]": {"biological_target": "T3, Psy3 (pGBD Psy3) (S. cerevisiae) (UniProt Q12318)", "T3 sequence": "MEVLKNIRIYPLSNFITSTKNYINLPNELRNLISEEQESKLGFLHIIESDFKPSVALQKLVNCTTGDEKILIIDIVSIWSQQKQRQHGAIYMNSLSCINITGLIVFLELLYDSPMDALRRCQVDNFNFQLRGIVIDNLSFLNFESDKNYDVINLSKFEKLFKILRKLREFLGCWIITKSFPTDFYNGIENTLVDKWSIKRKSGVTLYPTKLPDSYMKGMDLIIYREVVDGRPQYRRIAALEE", "test": "two-hybrid; GAL4 DNA-binding domain (pGBD) and GAL4 activation domain (pGAD) fusions co-transformed into PJ69-4α (also its rad51∆, rad55∆, csm2∆, shu1∆ and shu2∆ derivatives); growth on SC-L-W-H, 2-3 days, 30 °C"}, "[5]": {"biological_target": "T4, Shu2 (pGBD Shu2) (S. cerevisiae) (UniProt P38957)", "T4 sequence": "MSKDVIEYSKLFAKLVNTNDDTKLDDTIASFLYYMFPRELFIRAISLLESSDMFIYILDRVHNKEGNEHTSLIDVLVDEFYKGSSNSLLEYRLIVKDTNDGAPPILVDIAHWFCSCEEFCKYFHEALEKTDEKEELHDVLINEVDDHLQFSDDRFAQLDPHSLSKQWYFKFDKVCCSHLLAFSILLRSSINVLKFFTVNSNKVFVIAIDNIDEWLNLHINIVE", "test": "two-hybrid; GAL4 DNA-binding domain (pGBD) and GAL4 activation domain (pGAD) fusions co-transformed into PJ69-4α (also its rad51∆, rad55∆, csm2∆, shu1∆ and shu2∆ derivatives); growth on SC-L-W-H, 2-3 days, 30 °C"}, "[6]": {"biological_target": "T3, Psy3 (pGBD Psy3) (S. cerevisiae)", "test": "two-hybrid; GAL4 DNA-binding domain (pGBD) and GAL4 activation domain (pGAD) fusions co-transformed into PJ69-4α (also its rad51∆, rad55∆, csm2∆, shu1∆ and shu2∆ derivatives); growth on SC-L-W-H, 2-3 days, 30 °C", "remark": "listed apart in the source"}, "[7]": {"biological_target": "T5, Csm2 (pGBD Csm2) (S. cerevisiae) (UniProt P40465)", "T5 sequence": "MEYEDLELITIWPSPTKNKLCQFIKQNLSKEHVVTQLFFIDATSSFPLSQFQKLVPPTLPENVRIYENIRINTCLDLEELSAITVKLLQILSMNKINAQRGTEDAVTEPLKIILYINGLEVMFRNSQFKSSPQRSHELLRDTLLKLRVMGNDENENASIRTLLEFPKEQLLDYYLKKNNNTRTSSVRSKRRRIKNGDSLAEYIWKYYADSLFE", "test": "two-hybrid; GAL4 DNA-binding domain (pGBD) and GAL4 activation domain (pGAD) fusions co-transformed into PJ69-4α (also its rad51∆, rad55∆, csm2∆, shu1∆ and shu2∆ derivatives); growth on SC-L-W-H, 2-3 days, 30 °C"}, "Psy3-6HA (S. cerevisiae) [8]": {"biological_target": "T6, Psy3-6HA (S. cerevisiae) (UniProt Q12318)", "T6 sequence": "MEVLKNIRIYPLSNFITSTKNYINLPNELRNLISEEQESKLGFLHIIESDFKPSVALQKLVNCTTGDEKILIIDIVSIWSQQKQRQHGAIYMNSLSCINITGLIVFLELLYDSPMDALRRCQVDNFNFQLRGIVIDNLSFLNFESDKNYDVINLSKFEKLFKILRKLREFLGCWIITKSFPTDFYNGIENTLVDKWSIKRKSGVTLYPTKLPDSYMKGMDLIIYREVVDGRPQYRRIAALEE", "test": "co-IP; 6HA-tagged protein precipitated from yeast lysate (NP-40 lysis buffer) on anti-HA magnetic beads overnight at 4 °C, washed with 50 mM Tris-HCl pH 7.5, 1 M NaCl, 1% NP-40; blot for endogenous Mcm4 or Orc2; cells arrested in G1 with α-factor or released into S or S/G2, with or without 0.03% …; with or without benzonase (25 U)"}, "Psy3-6HA (S. cerevisiae) [9]": {"biological_target": "T6, Psy3-6HA (S. cerevisiae)", "test": "co-IP; as a3, but cells arrested in G2/M with nocodazole"}, "Csm2-6HA (S. cerevisiae)": {"biological_target": "T7, Csm2-6HA (S. cerevisiae) (UniProt P40465)", "T7 sequence": "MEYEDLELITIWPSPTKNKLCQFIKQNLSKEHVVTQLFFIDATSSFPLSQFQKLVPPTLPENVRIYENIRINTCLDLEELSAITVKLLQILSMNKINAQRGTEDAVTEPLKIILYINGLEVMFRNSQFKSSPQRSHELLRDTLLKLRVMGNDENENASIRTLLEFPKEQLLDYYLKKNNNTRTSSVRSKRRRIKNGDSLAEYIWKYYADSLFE", "test": "co-IP; 6HA-tagged protein precipitated from yeast lysate (NP-40 lysis buffer) on anti-HA magnetic beads overnight at 4 °C, washed with 50 mM Tris-HCl pH 7.5, 1 M NaCl, 1% NP-40; blot for endogenous Mcm4 or Orc2; cells arrested in G1 with α-factor or released into S or S/G2, with or without 0.03% …; with or without benzonase (25 U)"}}, "note": "Like-named read-outs stand apart in the source and are kept apart here. Results are given in words; binding and its absence hold for the method and conditions named. For some assays here: In cells and extracts the contact can be indirect. Some entries that bind do so weakly or less than the wild type.", "data": [{"molecule": "Mcm2 (pGAD Mcm2) (from UniProt P29469 1-868)", "values": [{"measurement": "binding", "setting": "[1]", "result": "no binding"}, {"measurement": "binding", "setting": "[2]", "result": "no binding"}, {"measurement": "binding", "setting": "[3]", "result": "no binding"}, {"measurement": "binding", "setting": "[4]", "result": "binds"}]}, {"molecule": "Cdc45 (pGAD CDC45) (protein, UniProt Q08032 1-650) MYYGISQFSEAYNKILRNSSSHSSCQLVIFVSCLNIDALCATKMLSLLFKKQLVQSQIVPIFGYSELRRHYSQLDDNINSLLLVGFGGVIDLEAFLEIDPQEYVIDTDEKSGEQSFRRDIYVLDAHRPWNLDNIFGSQIIQCFDDGTVDDTLGEQKEAYYKLLELDEESGDDELSGDENDNNGGDDEATDADEVTDEDEEDEDETISNKRGNSSIGPNDLSKRKQRKKQIHEYEGVLEEYYSQGTTVVNSISAQIYSLLSAIGETNLSNLWLNILGTTSLDIAYAQVYNRLYPLLQDEVKRLTPSSRNSVKTPDTLTLNIQPDYYLFLLRHSSLYDSFYYSNYVNAKLSLWNENGKKRLHKMFARMGIPLSTAQETWLYMDHSIKRELGIIFDKNLDRYGLQDIIRDGFVRTLGYRGSISASEFVEALTALLEVGNSTDKDSVKINNDNNDDTDGEEEEDNSAQKLTNLRKRWVSNFWLSWDALDDRKVELLNRGIQLAQDLQRAIFNTGVAILEKKLIKHLRIYRLCVLQDGPDLDLYRNPLTLLRLGNWLIECCAESEDKQLLPMVLASIDENTDTYLVAGLTPRYPRGLDTIHTKKPILNNFSMAFQQITAETDAKVRIDNFESSIIEIRREDLSPFLEKLTLSGLL", "values": [{"measurement": "binding", "setting": "[5]", "result": "binds"}, {"measurement": "binding", "setting": "[6]", "result": "binds"}, {"measurement": "binding", "setting": "[7]", "result": "binds"}]}, {"molecule": "Mcm4 (endogenous) (protein, UniProt P30665 1-933) MSQQSSSPTKEDNNSSSPVVPNPDSVPPQLSSPALFYSSSSSQGDIYGRNNSQNLSQGEGNIRAAIGSSPLNFPSSSQRQNSDVFQSQGRQGRIRSSASASGRSRYHSDLRSDRALPTSSSSLGRNGQNRVHMRRNDIHTSDLSSPRRIVDFDTRSGVNTLDTSSSSAPPSEASEPLRIIWGTNVSIQECTTNFRNFLMSFKYKFRKILDEREEFINNTTDEELYYIKQLNEMRELGTSNLNLDARNLLAYKQTEDLYHQLLNYPQEVISIMDQTIKDCMVSLIVDNNLDYDLDEIETKFYKVRPYNVGSCKGMRELNPNDIDKLINLKGLVLRSTPVIPDMKVAFFKCNVCDHTMAVEIDRGVIQEPARCERIDCNEPNSMSLIHNRCSFADKQVIKLQETPDFVPDGQTPHSISLCVYDELVDSCRAGDRIEVTGTFRSIPIRANSRQRVLKSLYKTYVDVVHVKKVSDKRLDVDTSTIEQELMQNKVDHNEVEEVRQITDQDLAKIREVAAREDLYSLLARSIAPSIYELEDVKKGILLQLFGGTNKTFTKGGRYRGDINILLCGDPSTSKSQILQYVHKITPRGVYTSGKGSSAVGLTAYITRDVDTKQLVLESGALVLSDGGVCCIDEFDKMSDSTRSVLHEVMEQQTISIAKAGIITTLNARSSILASANPIGSRYNPNLPVTENIDLPPPLLSRFDLVYLVLDKVDEKNDRELAKHLTNLYLEDKPEHISQDDVLPVEFLTMYISYAKEHIHPIITEAAKTELVRAYVGMRKMGDDSRSDEKRITATTRQLESMIRLAEAHAKMKLKNVVELEDVQEAVRLIRSAIKDYATDPKTGKIDMNLVQTGKSVIQRKLQEDLSREIMNVLKDQASDSMSFNELIKQINEHSQDRVESSDIQEALSRLQQEDKVIVLGEGVRRSVRLNNRV", "values": [{"measurement": "binding", "setting": "Psy3-6HA (S. cerevisiae) [8]", "result": "binds"}, {"measurement": "binding", "setting": "Psy3-6HA (S. cerevisiae) [9]", "result": "binds weakly"}]}, {"molecule": "Orc2 (endogenous) (protein, UniProt P32833 1-620) MLNGEDFVEHNDILSSPAKSRNVTPKRVDPHGERQLRRIHSSKKNLLERISLVGNERKNTSPDPALKPKTPSKAPRKRGRPRKIQEELTDRIKKDEKDTISSKKKRKLDKDTSGNVNEESKTSNNKQVMEKTGIKEKREREKIQVATTTYEDNVTPQTDDNFVSNSPEPPEPATPSKKSLTTNHDFTSPLKQIIMNNLKEYKDSTSPGKLTLSRNFTPTPVPKNKKLYQTSETKSASSFLDTFEGYFDQRKIVRTNAKSRHTMSMAPDVTREEFSLVSNFFNENFQKRPRQKLFEIQKKMFPQYWFELTQGFSLLFYGVGSKRNFLEEFAIDYLSPKIAYSQLAYENELQQNKPVNSIPCLILNGYNPSCNYRDVFKEITDLLVPAELTRSETKYWGNHVILQIQKMIDFYKNQPLDIKLILVVHNLDGPSIRKNTFQTMLSFLSVIRQIAIVASTDHIYAPLLWDNMKAQNYNFVFHDISNFEPSTVESTFQDVMKMGKSDTSSGAEGAKYVLQSLTVNSKKMYKLLIETQMQNMGNLSANTGPKRGTQRTGVELKLFNHLCAADFIASNEIALRSMLREFIEHKMANITKNNSGMEIIWVPYTYAELEKLLKTVLNTL", "values": [{"measurement": "binding", "setting": "Csm2-6HA (S. cerevisiae)", "result": "binds"}, {"measurement": "binding", "setting": "Psy3-6HA (S. cerevisiae) [8]", "result": "binds"}]}]}
